The RNAGym collection of RNA variant scans (doi:10.1073/pnas.2313332121)
Variants at the background level are over-represented here.

B1: TPR 5TU (parent)
chain: GGAUCUUCUCGAUCUAACAAAAAAGACAAAUCUGCCACAAAGCUUGAGAGCAUCUUCGGAUGCAGAGGCGGCAGCCUUCGGUGGCGCGAUAGCGCCAACGUUCUCAACUAUGACACGCAAAACGCGUGCUCCGUUGAAUGGAGUUUAUCAUG

Variants of: B1
Assay: polymerase ribozyme fitness, log enrichment relative to wild type (log ratio); higher = more active; in vitro selection for triplet polymerase activity
Summary of the method: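 Streptavidin-bead capture of gel-excised extended constructs, followed by RT-PCR, closed a single triplicate in vitro selection round. That round began by annealing PCR-built, transcribed mutant libraries of each subunit of a heterodimeric triplet polymerase ribozyme with a biotinylated primer, the partner subunit and triplets, then incubating them frozen at −7 °C. After Illumina sequencing of inputs and outputs, genotypes needed ≥10 input reads and ≥1 read per output. Fitness is the base-2 logarithm of genotype enrichment over wild-type enrichment, using inverse-variance-weighted replicate averages.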
With C8U U9G A40U A41C G83C U135G U146C A150U the “polymerase ribozyme fitness (log ratio)” value was at most -4.2. For C8U U9G C18G U33G U55A C95U C105U G112U C132U A147U, the “polymerase ribozyme fitness (log ratio)” value was at most -4.2. With C8U U13G A20U G62U C75A U77A G94A C96G A110U G112C the “polymerase ribozyme fitness (log ratio)” value was at most -4.2. In the case of C8U U15A G58U C69A C85A G124C, the “polymerase ribozyme fitness (log ratio)” value is reported as -3.61. In the case of C8U U15A U31A U56A A66U G71A C85U A97G G128U, the “polymerase ribozyme fitness (log ratio)” value is reported as at most -4.2. With C8U U15G A17G A30G U44G C76A C87A the “polymerase ribozyme fitness (log ratio)” value was at most -4.2. For C8U U15G A49G G59A A60G G70A G86C C93U A106G U135C, the “polymerase ribozyme fitness (log ratio)” value was at most -4.2. In the case of C8U U31C U90C C93U A150C, the “polymerase ribozyme fitness (log ratio)” value is reported as at most -4.2. In the case of C8U U33A A37C G50A A60U C72A G86A U90A A138G U151G, the “polymerase ribozyme fitness (log ratio)” value is reported as at most -4.2. In the case of C8U U33G A49C G50C G94A A97U C118G A121C, the “polymerase ribozyme fitness (log ratio)” value is reported as at most -4.2. In the case of C8U U53A, the “polymerase ribozyme fitness (log ratio)” value is reported as -3.41. With C8U U53A C85A C132U the “polymerase ribozyme fitness (log ratio)” value was at most -4.2. With C8U U55A the “polymerase ribozyme fitness (log ratio)” value was -2.51. In the case of C8U U56A C72G C85G, the “polymerase ribozyme fitness (log ratio)” value is reported as at most -4.2. With U9A A12G C14U A23U A40C C76G G86C U90C C118A C131G the “polymerase ribozyme fitness (log ratio)” value was at most -4.2. For U9A A12G C87U G100U C116A, the “polymerase ribozyme fitness (log ratio)” value was at most -4.2. With U9A A16U U61C C132U the “polymerase ribozyme fitness (log ratio)” value was at most -4.2. With U9A A19U A22U C54A G65U G94A G126A A147G the “polymerase ribozyme fitness (log ratio)” value was at most -4.2. In the case of U9A A21U C32G G42A U55A U56A C93A U127C A138U, the “polymerase ribozyme fitness (log ratio)” value is reported as at most -4.2. In the case of U9A A22C A37U U45A U53A G84A A147U, the “polymerase ribozyme fitness (log ratio)” value is reported as at most -4.2. In the case of U9A A22G G48A G62A G65A C76G A89C C93G C108A, the “polymerase ribozyme fitness (log ratio)” value is reported as at most -4.2. With U9A A22U C51U A60G A106C U135C A150G the “polymerase ribozyme fitness (log ratio)” value was at most -4.2. For U9A A23G G68C C79U G94C C105G G143A, the “polymerase ribozyme fitness (log ratio)” value was at most -4.2. In the case of U9A A24G A40G C105U U111G U139C U144C A150C, the “polymerase ribozyme fitness (log ratio)” value is reported as at most -4.2. For U9A A24U G94C U102C G124C, the “polymerase ribozyme fitness (log ratio)” value was at most -4.2. In the case of U9A A29U U78A C95A A107G, the “polymerase ribozyme fitness (log ratio)” value is reported as at most -4.2. With U9A A37C C95U the “polymerase ribozyme fitness (log ratio)” value was at most -4.2. For U9A A39G G68U A91G, the “polymerase ribozyme fitness (log ratio)” value was at most -4.2. In the case of U9A A39U, the “polymerase ribozyme fitness (log ratio)” value is reported as at most -4.2. With U9A A40C G83A C93U U135C the “polymerase ribozyme fitness (log ratio)” value was at most -4.2. With U9A A41C U44A C63U G70U U82A U90A C95U C118A the “polymerase ribozyme fitness (log ratio)” value was at most -4.2. For U9A A41U A52C G62U C87G A89G C95U C116A A142C U146A A150C, the “polymerase ribozyme fitness (log ratio)” value was at most -4.2. For U9A A41U G74A A89G C132U, the “polymerase ribozyme fitness (log ratio)” value was at most -4.2. In the case of U9A A52G G84U U90A G92A U139G, the “polymerase ribozyme fitness (log ratio)” value is reported as at most -4.2. With U9A A91U C95A A121G the “polymerase ribozyme fitness (log ratio)” value was at most -4.2. For U9A C32U G74U A91U, the “polymerase ribozyme fitness (log ratio)” value was at most -4.2. In the case of U9A C35G G86A A120C C125U G143C, the “polymerase ribozyme fitness (log ratio)” value is reported as at most -4.2. In the case of U9A C35U G84A C85A G88U U101C U146A, the “polymerase ribozyme fitness (log ratio)” value is reported as at most -4.2. In the case of U9A C35U U55A A91C, the “polymerase ribozyme fitness (log ratio)” value is reported as at most -4.2. With U9A C36U C63U C93G the “polymerase ribozyme fitness (log ratio)” value was at most -4.2. In the case of U9A C43A A147U U151G, the “polymerase ribozyme fitness (log ratio)” value is reported as at most -4.2. For U9A C54G A66U C99G A142U, the “polymerase ribozyme fitness (log ratio)” value was at most -4.2. In the case of U9A C85A U90C U104A U127G G140A, the “polymerase ribozyme fitness (log ratio)” value is reported as at most -4.2. For U9A G11A A26U C96A U104C, the “polymerase ribozyme fitness (log ratio)” value was at most -4.2. With U9A G11A C14U A19G C76A U82G C103A C116U the “polymerase ribozyme fitness (log ratio)” value was at most -4.2. With U9A G25C G84U the “polymerase ribozyme fitness (log ratio)” value was at most -4.2. With U9A G25U A26U U77A C79U G81C A122C the “polymerase ribozyme fitness (log ratio)” value was at most -4.2. For U9A G34A A89U C95A U104A G126C A137U, the “polymerase ribozyme fitness (log ratio)” value was at most -4.2. With U9A G34A C72U G88C A106G the “polymerase ribozyme fitness (log ratio)” value was at most -4.2. In the case of U9A G86C C105G, the “polymerase ribozyme fitness (log ratio)” value is reported as at most -4.2. For U9A G88A U109G C125U, the “polymerase ribozyme fitness (log ratio)” value was at most -4.2. With U9A U13C A37C G42C A91G A110G U111C G124A the “polymerase ribozyme fitness (log ratio)” value was at most -4.2. With U9A U13G G42U U61A A91U A106G A142C the “polymerase ribozyme fitness (log ratio)” value was at most -4.2. In the case of U9A U15A C93U C103G, the “polymerase ribozyme fitness (log ratio)” value is reported as at most -4.2. In the case of U9A U31C G67C, the “polymerase ribozyme fitness (log ratio)” value is reported as at most -4.2. With U9A U55A C85U G94A C114U G140C the “polymerase ribozyme fitness (log ratio)” value was at most -4.2. With U9C A12C A21U U90A A142C U148A the “polymerase ribozyme fitness (log ratio)” value was at most -4.2. In the case of U9C A12G A22G A49C C87U C125U C149G, the “polymerase ribozyme fitness (log ratio)” value is reported as at most -4.2. For U9C A21C C76A G94A C103A, the “polymerase ribozyme fitness (log ratio)” value was at most -4.2. In the case of U9C A21G G42C G58A U78G C87G, the “polymerase ribozyme fitness (log ratio)” value is reported as at most -4.2. In the case of U9C A22C C54U C57U G100U C105G, the “polymerase ribozyme fitness (log ratio)” value is reported as at most -4.2. In the case of U9C A22C C54U G71U G84A C95A A98U C108A C114U A115C, the “polymerase ribozyme fitness (log ratio)” value is reported as at most -4.2. For U9C A22C C96G C99G G128U, the “polymerase ribozyme fitness (log ratio)” value was at most -4.2. In the case of U9C A22C G58A U61G G83A C116G, the “polymerase ribozyme fitness (log ratio)” value is reported as at most -4.2. For U9C A23U A24G C38G A89G A91U, the “polymerase ribozyme fitness (log ratio)” value was at most -4.2. For U9C A23U G58U A73U C79A G83C G86A A107G G141C, the “polymerase ribozyme fitness (log ratio)” value was at most -4.2. With U9C A26G U55G C63A G94U U127A U130A C149U the “polymerase ribozyme fitness (log ratio)” value was at most -4.2. With U9C A29U A39U G50A A119C the “polymerase ribozyme fitness (log ratio)” value was at most -4.2. With U9C A30U C35A U82A A91U C93A G140U G143A U151G the “polymerase ribozyme fitness (log ratio)” value was at most -4.2. With U9C A30U G58C C76A G94C U104G G136A the “polymerase ribozyme fitness (log ratio)” value was at most -4.2. In the case of U9C A37G G42C A73U G92C C103U, the “polymerase ribozyme fitness (log ratio)” value is reported as at most -4.2. In the case of U9C A66G C76G G92U C114A, the “polymerase ribozyme fitness (log ratio)” value is reported as at most -4.2. With U9C A98U A115U A121G U127G the “polymerase ribozyme fitness (log ratio)” value was at most -4.2. In the case of U9C C14G, the “polymerase ribozyme fitness (log ratio)” value is reported as at most -4.2. For U9C C14G C27U A28U U31A C35A C87A, the “polymerase ribozyme fitness (log ratio)” value was at most -4.2. With U9C C18G A21G G50U G92U C125A U148C the “polymerase ribozyme fitness (log ratio)” value was at most -4.2. For U9C C54U C85A G136C, the “polymerase ribozyme fitness (log ratio)” value was at most -4.2. In the case of U9C C57G G140C, the “polymerase ribozyme fitness (log ratio)” value is reported as at most -4.2. In the case of U9C C96A C103A C108U U134A, the “polymerase ribozyme fitness (log ratio)” value is reported as at most -4.2. With U9C C99G C114G U148A the “polymerase ribozyme fitness (log ratio)” value was at most -4.2. With U9C G11U C18G C35U C75G C87G A89G A137U G143A the “polymerase ribozyme fitness (log ratio)” value was at most -4.2. For U9C G25A U31G A40U A52C C54U C57U G74A C96G C116U G128U, the “polymerase ribozyme fitness (log ratio)” value was at most -4.2. With U9C G71A C95U U151C the “polymerase ribozyme fitness (log ratio)” value was at most -4.2. With U9C U15G C54A G67C G84A G117A the “polymerase ribozyme fitness (log ratio)” value was at most -4.2.
